Hit rate of the full screen: of about 310,000 compounds, about 14,000 (4.5%) showed an effect of 50% or more. Effects have a minus sign here. This is one part of the list.
The compounds below were run against human ether-à-go-go-related gene (hERG) potassium channel (human, UniProt Q12809) (assay: primary screen, population patch clamp on CHO cells stably expressing hERG).
human ether-à-go-go-related gene (hERG) potassium channel, sequence (Q12809 whole entry, looked up): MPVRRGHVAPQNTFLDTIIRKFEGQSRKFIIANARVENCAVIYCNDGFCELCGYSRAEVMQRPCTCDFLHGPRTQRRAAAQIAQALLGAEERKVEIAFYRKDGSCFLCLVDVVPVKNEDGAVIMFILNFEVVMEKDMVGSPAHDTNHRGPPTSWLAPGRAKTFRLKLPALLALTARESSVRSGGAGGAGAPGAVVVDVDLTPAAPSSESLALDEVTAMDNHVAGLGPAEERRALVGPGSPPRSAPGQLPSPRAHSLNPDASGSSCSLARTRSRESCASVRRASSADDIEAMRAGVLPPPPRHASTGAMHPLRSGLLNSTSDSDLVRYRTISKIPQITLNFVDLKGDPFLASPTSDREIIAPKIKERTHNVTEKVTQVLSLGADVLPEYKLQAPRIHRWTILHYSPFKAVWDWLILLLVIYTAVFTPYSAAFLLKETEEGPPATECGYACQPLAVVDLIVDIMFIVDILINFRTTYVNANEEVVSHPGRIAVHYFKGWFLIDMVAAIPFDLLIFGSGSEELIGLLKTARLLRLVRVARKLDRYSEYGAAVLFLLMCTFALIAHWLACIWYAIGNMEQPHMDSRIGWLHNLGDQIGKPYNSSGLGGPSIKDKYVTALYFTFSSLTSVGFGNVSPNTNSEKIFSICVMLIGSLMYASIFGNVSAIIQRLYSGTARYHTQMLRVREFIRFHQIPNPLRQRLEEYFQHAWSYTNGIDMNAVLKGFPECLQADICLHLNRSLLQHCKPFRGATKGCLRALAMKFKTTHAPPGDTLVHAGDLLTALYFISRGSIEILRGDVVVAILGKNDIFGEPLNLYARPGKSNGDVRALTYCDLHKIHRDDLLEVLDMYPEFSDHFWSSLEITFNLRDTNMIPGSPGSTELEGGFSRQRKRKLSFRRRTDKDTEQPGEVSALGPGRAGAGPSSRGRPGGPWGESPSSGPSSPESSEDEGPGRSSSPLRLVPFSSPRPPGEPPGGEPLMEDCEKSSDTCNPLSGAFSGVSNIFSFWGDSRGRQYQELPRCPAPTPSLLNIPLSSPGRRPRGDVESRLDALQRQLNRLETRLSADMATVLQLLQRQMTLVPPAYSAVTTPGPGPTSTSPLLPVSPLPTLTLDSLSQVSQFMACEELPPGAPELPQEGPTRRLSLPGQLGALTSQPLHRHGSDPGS
For `COc1ccc(CC(=O)NCc2nnc(SCC(=O)Nc3ccc(OC)cc3)n2C)cc1`, the “hERG current change (%, negative = inhibition) at 10uM” value was 4.08%.
In the case of `COc1ccc(-c2cc3c(=O)n(CC(=O)N4CCN(C)CC4)ncn3n2)cc1`, the “hERG current change (%, negative = inhibition) at 10uM” value is reported as -18.8%.
`CCc1ccc2nc(N(CCCN(C)C)C(=O)c3ccc(S(=O)(=O)N4CCCC4)cc3)sc2c1.Cl` was tested, and the “hERG current change (%, negative = inhibition) at 10uM” value was -67.7%.
For `C/C=C/c1ccc(OCCN2CCc3ccccc3C2)c(OC)c1`, the “hERG current change (%, negative = inhibition) at 10uM” value was -77.7%.
`O=C(NCCC1CCCCN1S(=O)(=O)c1ccc(F)cc1)C(=O)Nc1ccccc1` (stereo not shown) was tested, and the “hERG current change (%, negative = inhibition) at 10uM” value was -25.6%.
With `Cc1ccc(NC(=O)CN(C)C(=O)c2cccc(S(=O)(=O)NCc3ccccc3)c2)cc1` the “hERG current change (%, negative = inhibition) at 10uM” value was -26.5%.
In the case of `Cc1cccc(C(=O)N2CCNC(=O)C2CC(=O)Nc2cccc(Cl)c2)c1` (stereo not shown), the “hERG current change (%, negative = inhibition) at 10uM” value is reported as -1.71%.
With `CCOc1ccc(/C=N/NC(=O)CN2CCCCCCC2)cc1` the “hERG current change (%, negative = inhibition) at 10uM” value was -63%.
In the case of `Cc1ccc(Cc2cnc(NC(=O)/C(C#N)=C/c3ccc(-c4cccc([N+](=O)[O-])c4)o3)s2)cc1`, the “hERG current change (%, negative = inhibition) at 10uM” value is reported as 6.05%.
With `CCC(=O)Nc1c2c(nn1-c1ccc(OC)cc1)CS(=O)C2` (stereo not shown) the “hERG current change (%, negative = inhibition) at 10uM” value was 9.94%.
`O=C(CNc1ccc2ccccc2c1)N/N=C/c1ccc([N+](=O)[O-])o1` was tested, and the “hERG current change (%, negative = inhibition) at 10uM” value was 1.03%.
In the case of `COc1ccc(C23CC4CC(CC(C(=O)O)(C4)C2)C3)c(F)c1`, the “hERG current change (%, negative = inhibition) at 10uM” value is reported as 13.7%.
With `O=c1[nH]nc(-c2ccc(NCCO)c([N+](=O)[O-])c2)c2ccccc12` the “hERG current change (%, negative = inhibition) at 10uM” value was 31.9%.
With `CC(C)=CCOc1ccc([C@@H]2COc3c(ccc4c3C=CC(C)(C)O4)C2)c(O)c1` the “hERG current change (%, negative = inhibition) at 10uM” value was 19.5%.
With `Cc1nc(-c2ccc(-n3nncc3-c3ccco3)cc2)cs1` the “hERG current change (%, negative = inhibition) at 10uM” value was -34.2%.
With `COC(=O)c1ccc(COC(=O)C2CCN(S(=O)(=O)c3ccc(C)c(C)c3)CC2)o1` the “hERG current change (%, negative = inhibition) at 10uM” value was 9.51%.
`O=C(NCC1CCCN1S(=O)(=O)c1ccccc1)c1cccc(Cl)c1` (stereo not shown) was tested, and the “hERG current change (%, negative = inhibition) at 10uM” value was -40.4%.
`COc1ccccc1NC(=O)c1ccc(CS(=O)(=O)c2ccc(C)cc2)cc1` was tested, and the “hERG current change (%, negative = inhibition) at 10uM” value was 4.5%.
For `Cc1ccc(NC2=NC(c3ccc(F)cc3)n3c(nc(C)cc3=O)N2)c(C)c1` (stereo not shown), the “hERG current change (%, negative = inhibition) at 10uM” value was 21.8%.
In the case of `CN(C)CCN1C(=O)C2C3C=CC(C3)C2C1=O` (stereo not shown), the “hERG current change (%, negative = inhibition) at 10uM” value is reported as 20.6%.
With `Cc1ccc(NC(=S)N2CCn3cccc3C2c2cccnc2)cc1` (stereo not shown) the “hERG current change (%, negative = inhibition) at 10uM” value was -37.3%.
In the case of `COc1ccc(N/N=C(C)/C(=N/O)C(=O)Nc2ccccc2)cc1`, the “hERG current change (%, negative = inhibition) at 10uM” value is reported as -12.1%.
In the case of `CCOC(=O)Cc1cnc(NC(=O)CSc2nc(N)cc(N)n2)s1`, the “hERG current change (%, negative = inhibition) at 10uM” value is reported as -2.73%.
`NC(=O)CN1C(=O)C(=O)N(Cc2ccc(Cl)cc2)C1=O` was tested, and the “hERG current change (%, negative = inhibition) at 10uM” value was 12.6%.
With `COc1ccc(C2Nc3ccccc3C(=O)N2Cc2ccccc2)cc1COc1ccccn1` (stereo not shown) the “hERG current change (%, negative = inhibition) at 10uM” value was -49.4%.
For `Cc1nc2ncnn2c(N2CCN(C(c3ccccc3)c3ccccc3)CC2)c1C`, the “hERG current change (%, negative = inhibition) at 10uM” value was -47.7%.
`CCOc1ccc(C(c2c(C)[nH][nH]c2=O)c2c(C)[nH][nH]c2=O)cc1OC` was tested, and the “hERG current change (%, negative = inhibition) at 10uM” value was 2.49%.
`Cc1[nH]nc2nc(SCC(=O)NCCC3=CCCCC3)n(-c3ccc(Br)cc3)c(=N)c12` was tested, and the “hERG current change (%, negative = inhibition) at 10uM” value was 6.42%.
`CSc1nnc([C@@H](N)Cc2c[nH]c3ccccc23)o1.Cl` was tested, and the “hERG current change (%, negative = inhibition) at 10uM” value was 30.1%.
With `CC(C)(C)NC(=O)COC(=O)c1nsc(Cl)c1Cl` the “hERG current change (%, negative = inhibition) at 10uM” value was 13.6%.
`CCc1ccc(NC(=O)NNC(=O)CCc2ccccc2)cc1` was tested, and the “hERG current change (%, negative = inhibition) at 10uM” value was 7.67%.
For `COc1ccc(C(=O)c2sc3nc(-c4ccc(OC)cc4)ccc3c2N)cc1`, the “hERG current change (%, negative = inhibition) at 10uM” value was 24.2%.
In the case of `O=C(CCc1nnc2ccc(N3CCCCC3)nn12)NCC1CCN(Cc2ccc(F)cc2)CC1`, the “hERG current change (%, negative = inhibition) at 10uM” value is reported as -24.1%.
With `CCOc1ccc(C(=O)Nc2c3c(nn2-c2ccc(F)cc2)CS(=O)C3)cc1` (stereo not shown) the “hERG current change (%, negative = inhibition) at 10uM” value was -1.14%.
With `Cc1ccc(C(=O)OCC(=O)N2CCC(c3ccccc3)=N2)c(C)c1` the “hERG current change (%, negative = inhibition) at 10uM” value was -1.4%.
For `Cc1ccccc1-n1c(C)cc(/C=C(\C#N)C(=O)NCC2CCCO2)c1C` (stereo not shown), the “hERG current change (%, negative = inhibition) at 10uM” value was -7.78%.
With `Nc1cc(=O)[nH]c(SC/C=C/c2ccccc2)n1` the “hERG current change (%, negative = inhibition) at 10uM” value was -6.72%.
With `CCN(CC)S(=O)(=O)c1cc(-c2nnc(-c3ccc(Br)cc3)o2)ccc1Br` the “hERG current change (%, negative = inhibition) at 10uM” value was 12.7%.
With `CC(=O)c1ccc(-n2ccnc2)cc1` the “hERG current change (%, negative = inhibition) at 10uM” value was 10.6%.
`N#CCCn1cc(/C=N/O)c(-c2ccccc2)n1` was tested, and the “hERG current change (%, negative = inhibition) at 10uM” value was -2.58%.
With `NC(=S)NNC(=O)[C@@H]1CCCC[C@@H]1C(=O)O` the “hERG current change (%, negative = inhibition) at 10uM” value was 39.9%.
In the case of `CCOC(=O)CCCCC(=O)c1[nH]c(=O)[nH]c1Cn1cnc2ccccc21`, the “hERG current change (%, negative = inhibition) at 10uM” value is reported as 9.23%.
`CCc1ccc2nc(NC(=O)CSCc3c(C)noc3C)sc2c1` was tested, and the “hERG current change (%, negative = inhibition) at 10uM” value was -14%.
With `COc1ccccc1OCCNC(=O)CNC(=O)c1ccc(C(C)(C)C)cc1` the “hERG current change (%, negative = inhibition) at 10uM” value was -18.8%.
In the case of `Cc1ccnc(Nc2nc(-c3ccc(F)cc3)cs2)c1`, the “hERG current change (%, negative = inhibition) at 10uM” value is reported as 16.3%.
`CC1CCCCC1NC(=O)c1c(O)nc2ccccn2c1=O` (stereo not shown) was tested, and the “hERG current change (%, negative = inhibition) at 10uM” value was -7.2%.
`COCCNC(=O)c1cc2cc(Br)cc(Br)c2oc1=O` was tested, and the “hERG current change (%, negative = inhibition) at 10uM” value was 40.3%.
With `Nc1nc(CSc2nnnn2-c2ccc(F)c(Cl)c2)nc(N2CCOCC2)n1` the “hERG current change (%, negative = inhibition) at 10uM” value was -20.5%.
For `NC(=O)c1cc(S(=O)(=O)Nc2ccccc2)cs1`, the “hERG current change (%, negative = inhibition) at 10uM” value was 1.39%.
With `CCc1c(O)nc(SCC(=O)N2CCOCC2)n(-c2ccccc2)c1=O` the “hERG current change (%, negative = inhibition) at 10uM” value was 26.3%.
`COC(=O)CC1(c2ccc(OC)cc2)C(=O)c2ccccc2C1=O` was tested, and the “hERG current change (%, negative = inhibition) at 10uM” value was -8.58%.
`O=C(COc1ccc(Br)cc1)N(Cc1cccs1)C1CCS(=O)(=O)C1` (stereo not shown) was tested, and the “hERG current change (%, negative = inhibition) at 10uM” value was -51.7%.
With `Cc1onc(-c2c(Cl)cccc2Cl)c1C(=O)NC(=S)Nc1sc2c(c1C(N)=O)CCC(C)C2` (stereo not shown) the “hERG current change (%, negative = inhibition) at 10uM” value was 6.51%.
`Cc1ccc(-c2csc3ncnc(N4CCN(C(=O)c5ccco5)CC4)c23)cc1` was tested, and the “hERG current change (%, negative = inhibition) at 10uM” value was -89.9%.
In the case of `CC1(c2ccccc2)NC(=O)N(CC(=O)N2CCN(S(=O)(=O)c3ccccc3[N+](=O)[O-])CC2)C1=O` (stereo not shown), the “hERG current change (%, negative = inhibition) at 10uM” value is reported as 10.7%.

Reference: PMC4336329 (PLoS ONE, 2015)
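Also: peak tail current of the secondary pulse compared with the same well before compound.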
